Experimental data published in ChEMBL document CHEMBL4888484, “Replenishing the malaria drug discovery pipeline: Screening and hit evaluation of the MMV Hit Generation Library 1 (HGL1) against asexual blood stage Plasmodium falciparum ,using a nano luciferase reporter read-out” (2022).
About 540 (0.36%) of roughly 150,000 compounds showed an effect of 50% or more. The list shows a part of the results.

test system: Plasmodium falciparum; assay: Primary screen in NF54 nanoGlo assay, in single point, at 2uM, 72h; a lower Z score goes with more inhibition; type: functional, Erythrocyte; settings: timepoint 72 hour

Row | Compound | % Inhibition | Z score
1 | Cc1n[nH]c(C)c1CCC(=O)NCCS(=O)(=O)N(C)C | 3% | -0.49
2 | COC1(CNC(=O)N2CC[C@H](c3cnn(C)c3)C2)CCOCC1 | 2% | -0.28
3 | CC(=O)NCc1ccc(N2CC[C@@]3(CCCN(CCC4CCCCC4)C3)C2)nc1 | -1% | 0.2
4 | Fc1ccc2c(c1)CCN(Cc1cc[nH]n1)C2 | -6% | 0.68
5 | CC(C(=O)NC1CC=CCC1)C(F)(F)F (configuration not stated) | -4% | 0.75
6 | Cc1c(-c2nc([C@H]3CCOC3)no2)[nH]c2ccccc12 | -7% | 0.7
7 | COc1ccccc1CNC(=O)[C@]1(C)Cn2cnc(C(=O)N3CCCC3)c2C(=O)N1C1CC1 | -25% | 2.53
8 | O=C(C1CCC1c1ccc(F)cc1)N1CCCC(c2nc3ccc(F)cc3o2)C1 (configuration not stated) | -10% | 1.06
9 | COc1ccc(NC(=O)N/C=C/c2ccc(Cl)cc2)cc1 | 0% | -0.07
10 | OC[C@@H]1[C@@H](Cc2ccnc(C3CC3)n2)[C@H](NCc2ccc(F)cc2)C[C@H]1O | 30% | -3.41
11 | O=C1CN(C(=O)Cn2nnc3ccccc3c2=O)CCN1 | -7% | 1.35
12 | O=C(CNC(=O)C1(N2CCOCC2)CCC1)Nc1ccccc1 | 1% | -0.16
13 | Cn1c(NC(=O)c2cccs2)c(-c2ccc3c(c2)OCO3)c(=O)c2ccccc21 | -2% | 0.32
14 | COCCN(CC(F)F)C(=O)Nc1ccccc1C(F)(F)F | -7% | 0.74
15 | COc1ccccc1C(=O)N1CCC2(CC1)C[C@@H](O)CCO2 | -6% | 0.84
16 | CC(C)C[C@H]1NC(=O)c2cc(F)ccc2OCCn2cc(nn2)CCN(C(=O)c2cccnc2)CCNC1=O | -12% | 1.5
17 | O=C(CCCOc1cccnc1)N1CCC[C@H]1c1ccc(F)c(F)c1 | 0% | -0.06
18 | CCc1c(C(=O)N2CC[C@@](O)(C3CCOCC3)[C@H](C)C2)csc1C | -14% | 1.19
19 | Cc1ncccc1CNC1(C(=O)NCC2CC2)CCCC1 | -3% | 0.26
20 | CCN(C)C[C@H]1CCN(C(=O)c2ccc3[nH]ccc3c2)C1 | 0% | 0.02
21 | CC(C)c1csc([C@H]2CCCN(Cc3ccc(C(=O)O)c(Cl)c3)C2)n1 | 7% | -0.81
22 | C[C@@H](C(=O)Nc1nccnc1C1CC1)c1ccccc1F | 1% | -0.18

Row | Compound | % Inhibition | Z score
23 | CC[C@@](C)(C(=O)NC1CCCC1)N(Cc1ccco1)C(=O)c1cnccn1 | 10% | -1.21
24 | Cc1sc2ncnc(NCC(C)(C)N3CCN(C)CC3)c2c1C | -11% | 0.97
25 | CN(C[C@H]1CCOC1)S(=O)(=O)c1cc2cc(Cl)ccc2s1 | -4% | 0.36
26 | O=C(Nc1ccc(-c2nc3ccc(NC(=O)C4CCCCC4)cc3s2)cc1)C1CCCCC1 | -15% | 2.38
27 | O=C1N[C@H](CO)C(=O)N[C@H]1Cc1c[nH]c2ccccc12 | -4% | 0.73
28 | Cc1cc2ccccc2n1CC(=O)Nc1cc(N2CCCC2=O)ccc1F | -13% | 1.43
29 | Cc1ccc(NS(=O)(=O)c2ccc(C(=O)Nc3nnn[nH]3)cc2)cc1C | -10% | 1.34
30 | COc1cc(CN(C)Cc2cc(C3CC3)[nH]n2)ccc1OC[C@@H](O)CN(C)C(C)C | 6% | -1.06
31 | c1ccc2c3nc[nH]c(N4CCCC4)c-3nc2c1 | 6% | -0.69
32 | O=C(C[C@H]1CCCN1c1ccnc(C2CC2)n1)c1ccco1 | 37% | -5.38
33 | Cc1csc(C(=O)N2CCCCS2(=O)=O)c1Cl | -5% | 0.99
34 | CCCOCCNC(=O)C1=C(C)NC(=O)N[C@H]1C | -10% | 1.61
35 | C[C@H]1CCCN(C(=O)NCCc2nccn2C(F)F)C1 | 8% | -1.02
36 | CN(C)C(=O)c1nn(CCC(F)(F)F)c2c1CNCC2 | 2% | -0.2
37 | OC(CN1CCC(CCCC2CCN(CC(O)c3ccccc3)CC2)CC1)c1ccccc1 (configuration not stated) | -2% | 0.31
38 | C[C@H]1CN(C(=O)Nc2ccccc2)C2(CCCCCC2)O1 | 1% | -0.15
39 | CC(C)n1c([C@@H]2c3nc[nH]c3CCN2Cc2ccoc2)nc2ccccc21 | -6% | 0.56
40 | Cc1cnccc1CN1CC[C@H](N2CCOCC2)[C@H](CCCO)C1 | -3% | 0.55
41 | COc1ccccc1CN(Cc1nc(C(=O)NCCN(C)C)co1)C(C)C | 1% | -0.12
42 | c1ccc(COC[C@H]2c3nc[nH]c3CCN2Cc2cccnc2)cc1 | -21% | 1.89
43 | CN1CCCC[C@@H]1CCOc1ccc([C@H]2CC[C@H](N(C)C(=O)c3ccc(Cl)cc3)CC2)cc1 | 6% | -0.68
44 | CC(C)N(CC(=O)Nc1cccc(N2CCCC2=O)c1)Cc1ccccc1 | -12% | 1.86

Row | Compound | % Inhibition | Z score
45 | CCn1ncnc1CN[C@H]1CCc2cc(F)c(Cl)cc21 | -2% | 0.39
46 | CC(C)c1nnc(C2CCN(C(=O)Cc3c[nH]c4ccccc34)CC2)o1 | 12% | -1.6
47 | Clc1cccc(-c2noc([C@H]3CC34CCN(Cc3nc(C5CC5)no3)CC4)n2)c1 | -1% | 0.17
48 | COc1ccc(CCc2nnc(NC(=O)Cc3c(C)noc3C)[nH]2)cc1OC | 49% | -6.37
49 | O=C(Nc1cccc(-c2nnc3n2CCCC3)c1)c1ccccn1 | -8% | 1.29
50 | Cc1csc(Cn2ccnc2-c2cc3n(n2)CCCNC3)n1 | -5% | 0.93
51 | Cn1ncnc1C(=O)NC[C@H]1CC1(C)C | -7% | 0.7
52 | CN1CCN(CC(C)(C)Nc2nccc3cccnc23)CC1 | -7% | 1.1
53 | CN(C)c1c(F)cc(NC(=O)c2nccnc2N)cc1F | 3% | -0.4
54 | CC(C)c1nccc(-c2nccn2-c2ccc(S(N)(=O)=O)cc2)n1 | -3% | 0.53
55 | C[C@H](C#N)C(=O)NC1CCC(F)(F)CC1 | -9% | 1.31
56 | COCc1nccc(N[C@H]2CCc3c(OC)cccc32)n1 | -18% | 3.39
57 | O=C(Nc1nc(-c2ccc3c(c2)CCCC3)cs1)[C@@H]1CCCO1 | -4% | 0.55
58 | CO[C@H]1CCC12CCN(Cc1cccnc1)CC2 | -7% | 0.95
59 | C[C@@H](CCc1cccc(F)c1)NC(=O)C(=O)Nc1ccn(C)n1 | -11% | 1.67
60 | Cc1ccc(NC(=O)N(CCN2CCCC2)CC(=O)N(Cc2ccc(F)cc2)Cc2cccs2)cc1C | 6% | -0.76
61 | Fc1cccc(-c2n[nH]c3c2CN(CC2CCC2)CC3)c1 | -3% | 0.43
62 | Cc1cnn(CC(=O)Nc2ccc3[nH]c(=O)[nH]c3c2)c1 | -11% | 1.79
63 | CN1CCCC1C1CCCN1C(=O)C1CC1c1ccco1 (configuration not stated) | -7% | 0.93
64 | CCc1nc2ccccc2n1[C@@H](CC)C(=O)NCCn1cc(C)cn1 | 5% | -0.71
65 | CC(C)[C@]1(C(=O)O)CCN(C(=O)CC(C)(C)C)C1 | -12% | 1.9
66 | O=C1NC2(CCN(Cc3ccccc3)CC2)Nc2cccc(Cl)c21 | -3% | 0.42

Row | Compound | % Inhibition | Z score
67 | Clc1ccc(CNc2ccc3cn[nH]c3c2)cc1Cl | 8% | -1.18
68 | Cn1ccnc1CN1CCN(C(=O)C2CCC2)[C@H]2CS(=O)(=O)C[C@H]21 | 6% | -0.85
69 | COC(=O)[C@H]1CCn2c(COc3cccc(C)c3)nnc2C1 | -6% | 0.98
70 | O=C(NC1CC2CCC1C2)c1ccc(CN2CCOCC2)cc1 (configuration not stated) | -8% | 0.94
71 | O=S(=O)(CCNS(=O)(=O)c1cccc(Br)c1)Nc1ccccn1 | -15% | 2.31
72 | CCC1(O)CCN(C(=O)N[C@@H](C)c2ccc(F)cc2Cl)C1 (some centres not stated) | -9% | 1.78
73 | CCOC(=O)Cc1cc(O)c2c(=O)n(-c3ccccc3)[nH]c2n1 | -16% | 2.38
74 | Cc1cc(=O)cc(C)n1-c1ccccc1N1CCOCC1 | -2% | 0.2
75 | O=C(c1cc(-c2ccc(F)cc2)c[nH]1)N1CC(S(=O)(=O)c2ccc(Cl)cc2)C1 | 1% | -0.17
76 | CC1(C)CCN1C(=O)c1cc(Cl)c2c(c1)OCCCO2 | 27% | -3.02
77 | CCc1cccn(Cc2nccc(C)n2)c1=O | -15% | 2.34
78 | CCn1ncc(C(=O)N(CCOC)Cc2scnc2C)n1 | 5% | -0.55
79 | CCOCCO[C@@H](C)C(=O)N(Cc1ccccn1)C(C)C | -14% | 2.05
80 | CC(=O)N1CCc2cc(N[C@@H](C)C(=O)N3CCC(C)CC3)ccc21 | -4% | 0.82
81 | Cc1occc1C(=O)N1CC[C@H](OCCCc2ccccc2)C1 | -7% | 0.74
82 | NC(=O)c1ccc(NC(=O)CN2CC(O)C2)cc1 | -6% | 0.82
83 | O=C(CN1CCN(Cc2ccccc2)CC1)N[C@H]1CCc2ccccc21 | -22% | 2.25
84 | O=C(O)[C@H]1CCCCN1C(=O)C1CC1c1ccc(F)c(F)c1 (some centres not stated) | 3% | -0.28
85 | CCc1cnc(CNC(=O)N(CC2CCC2)C(C)C)s1 | -17% | 2.4
86 | CC(=O)c1ccc(S(=O)(=O)N2CCc3c(c(-c4nnc(-c5ccc(F)cc5)o4)nn3C)C2)cc1 | -9% | 1.08
